# Measurements from the supplement of paper PMC7826260.
# This is one part of the list. The data describe in vitro nicking of single-stranded DNA by Rep domains at 3 µM enzyme and 37 °C for 1 h; the strands have 90 letters, of which the middle is given. Values are log2 of uncut reads against the no-enzyme pool; more negative means more cut, near 0 not cut, and no call is made. The scaling is to total reads; values above 0 arise when much of the pool is cut.
# How the values were obtained:
# Test in all cases: uncleaved DNA left, log2 of reads against the no-enzyme library (log2 ratio); higher = less cleavage (more negative = more Rep cleavage of the k-mer); sequences stand for … in CTCGTCCG…ACCGGAGA
# [1] = system: T1, Rep nickase domain of Muscovy duck circovirus
# T1 sequence (protein, residues 1-111, tag omitted): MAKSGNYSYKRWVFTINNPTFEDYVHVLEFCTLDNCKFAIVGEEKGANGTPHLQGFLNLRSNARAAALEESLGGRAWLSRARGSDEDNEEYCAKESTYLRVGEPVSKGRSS
# Procedure: (§1)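 A pool of 90-nt single-stranded DNAs with seven random bases just before the constant AC of the nick site (name = the seven bases) was cut by 3 µM recombinant His6-SUMO-tagged Rep nickase domain (300 nM DNA, 50 mM HEPES pH 8.0, 50 mM NaCl, 1 mM MnCl2, 1 h, 37 °C, three replicates). Uncut DNA was amplified and sequenced.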
# [2] = system: T2, Rep nickase domain of banana bunchy top virus
# T2 sequence (protein, residues 1-94, tag omitted): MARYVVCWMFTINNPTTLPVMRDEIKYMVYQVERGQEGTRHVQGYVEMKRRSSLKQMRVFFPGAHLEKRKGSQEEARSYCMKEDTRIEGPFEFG
# Procedure: as §1
# [3] = system: T3, Rep nickase domain of cabbage leaf curl virus
# T3 sequence (protein, residues 1-116, tag omitted): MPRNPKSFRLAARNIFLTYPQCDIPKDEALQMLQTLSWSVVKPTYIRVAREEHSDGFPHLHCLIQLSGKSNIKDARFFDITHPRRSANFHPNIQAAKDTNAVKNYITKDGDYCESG
# Procedure: as §1
# [4] = system: T4, Rep nickase domain of chickpea chlorotic dwarf virus
# T4 sequence (protein, residues 1-124, tag omitted): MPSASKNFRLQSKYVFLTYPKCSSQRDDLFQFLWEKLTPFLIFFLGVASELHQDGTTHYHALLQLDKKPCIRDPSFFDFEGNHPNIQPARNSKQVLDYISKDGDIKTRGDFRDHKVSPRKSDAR
# Procedure: as §1
# [5] = system: T5, Rep nickase domain of faba bean necrotic yellows virus
# T5 sequence (protein, residues 1-98, tag omitted): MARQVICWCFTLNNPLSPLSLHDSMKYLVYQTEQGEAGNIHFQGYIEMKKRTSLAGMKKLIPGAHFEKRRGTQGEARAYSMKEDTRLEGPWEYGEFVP
# Procedure: as §1
# [6] = system: T6, Rep nickase domain of maize striate mosaic virus
# T6 sequence (protein, residues 1-117, tag omitted): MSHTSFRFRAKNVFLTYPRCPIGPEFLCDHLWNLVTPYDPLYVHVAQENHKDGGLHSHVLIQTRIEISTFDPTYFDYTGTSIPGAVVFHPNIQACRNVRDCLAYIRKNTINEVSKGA
# Procedure: as §1
# [7] = system: T7, Rep nickase domain of porcine circovirus 2
# T7 sequence (protein, residues 2-116, tag omitted): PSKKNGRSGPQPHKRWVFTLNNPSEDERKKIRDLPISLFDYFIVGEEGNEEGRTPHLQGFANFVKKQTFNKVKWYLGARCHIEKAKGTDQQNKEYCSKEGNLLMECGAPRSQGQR
# Procedure: as §1
# [8] = system: T8, Rep nickase domain of tomato yellow leaf curl virus
# T8 sequence (protein, residues 1-136, tag omitted): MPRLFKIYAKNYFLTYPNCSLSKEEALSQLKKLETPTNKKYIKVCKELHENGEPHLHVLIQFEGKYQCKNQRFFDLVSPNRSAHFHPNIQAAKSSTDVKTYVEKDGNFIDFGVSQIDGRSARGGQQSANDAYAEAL
# Procedure: as §1
# [9] = system: T9, Rep nickase domain of wheat dwarf virus
# T9 sequence (protein, residues 1-137, tag omitted): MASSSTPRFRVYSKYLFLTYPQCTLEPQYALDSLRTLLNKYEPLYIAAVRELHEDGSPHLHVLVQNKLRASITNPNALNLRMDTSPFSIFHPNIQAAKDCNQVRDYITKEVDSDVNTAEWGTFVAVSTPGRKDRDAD
# Procedure: as §1
Sequence,uncleaved DNA left (log2) [1],uncleaved DNA left (log2) [2],uncleaved DNA left (log2) [3],uncleaved DNA left (log2) [4],uncleaved DNA left (log2) [5],uncleaved DNA left (log2) [6],uncleaved DNA left (log2) [7],uncleaved DNA left (log2) [8],uncleaved DNA left (log2) [9]
CTTAGAC,0.0542,0.0259,0.199,0.239,-0.0426,-0.347,0.168,0.0926,0.0426
AGATGTT,-3.12,-0.238,-1.99,-2.71,0.0792,0.0743,-3.77,0.0245,-1.96
CTTATAG,0.0389,0.047,-0.7,-0.366,0.0365,-1.08,0.229,0.105,-0.0129
ATTGGAT,0.0228,-0.0254,0.293,1.67,0.0343,1.89,0.118,-0.211,0.102
GACGTAA,-0.117,-0.0983,0.15,0.216,-0.0581,0.642,0.147,-0.0407,-0.0173
GTCGTTT,0.101,0.0931,0.428,0.64,0.0917,1.53,0.0274,0.0432,0.0194
AGTACGT,-0.012,-0.0499,0.112,0.0425,-0.0428,-0.0692,-3.25,0.00182,-0.0102
TGTCTGA,0.101,-0.106,0.234,0.421,0.0618,0.656,0.135,0.15,0.0842
TACCACC,-0.0859,-0.1,-0.185,-1.6,-0.139,-0.54,-0.82,-0.0443,-0.0559
CCGAGGC,0.00787,-0.0314,0.198,0.501,-0.0606,-0.0823,-0.0523,-0.0639,-0.0764
AACATCG,0.0438,0.0478,-0.691,0.163,0.0837,-0.767,0.194,0.0362,-0.107
CCGACGT,0.0695,0.00474,0.196,0.396,0.165,0.498,-0.0184,0.03,0.0261
CAGAATT,-0.0956,-3.4,-0.617,-2.69,-2.46,-0.393,-3.94,0.00172,-0.139
AATAATC,0.0288,0.114,0.0985,-0.209,0.066,-0.693,0.0828,0.0159,0.0702
TATGCTG,-0.0623,-0.0548,0.0463,0.929,-0.0461,1.07,0.0325,-0.0765,-0.0364
ACCTAGC,-0.113,0.0224,-0.583,-0.553,-0.0339,-1.06,0.0915,-0.0771,-0.0745
TAACTCA,0.0615,0.127,-1.54,-2.68,0.173,-0.701,-0.0423,0.138,-1.15
CAAGGCG,0.0797,0.067,-0.663,0.297,0.128,-0.488,0.265,0.0923,-0.0646
GCGTTTT,-1.5,-0.387,0.0116,-1.06,-0.327,0.0158,-2.8,-0.0368,-0.0993
GTATTAG,-0.0787,-0.062,-0.45,-0.544,-0.0785,-1.07,0.0574,-0.102,-0.1
GCAGAGG,0.106,0.11,-0.00967,0.479,0.143,-0.0836,0.113,-0.115,0.041
TAATCTG,-0.00925,-0.036,-0.495,-0.923,0.0292,0.611,0.132,-0.0205,-0.0206
GGCTTGA,-0.00348,-0.0477,0.238,0.812,-0.02,1.59,0.00225,-0.0714,0.0021
GCTGCCT,-0.0172,-0.0892,-0.0161,-0.0859,-0.0602,0.427,-0.13,-0.033,-0.0457
ATAAGGG,0.0689,0.0325,-0.195,0.654,0.0928,-0.148,0.165,0.0199,-0.00118
ACCGTGG,-0.0322,0.0563,-0.00136,0.51,0.00588,-0.384,0.199,0.00897,0.0184
GTCATAT,0.0317,0.0597,0.319,0.957,-0.0394,1.63,0.0649,0.0476,0.147
AGGTAGT,-0.628,-0.205,-0.0894,0.348,-0.27,0.541,-3.3,-0.174,-0.188
TTTAAAT,0.0402,0.144,0.117,-0.397,0.00243,-0.0665,-0.715,0.141,0.0443
TCTGCCA,0.0202,-0.0391,-0.181,-0.786,0.0158,-0.684,-0.0806,0.00353,-0.0578
